Test results as given in US20190038733A1.

Biological target: CD3ε (human CD3 epsilon subunit, expressed from cDNA in K562 cells; endogenous in Jurkat cells and T lymphocytes) (human) (UniProt P07766)
Assay: cell-based or functional assay

B1: anti-CD3ε Protein Expression Blockers (PEBLs): PLU4-derived scFv linked to a retention-signaling / localizing domain (scFv, part only; not given: localizing domain of each construct, part only)
scFv, part: QIVLTQSPAIMSASPGEKVTMTCSASSSVSYMNWYQQKSGTSPKRWIYDTSKLASGVPAHFRGSGSGTSYSLTISGMEAEDAATYYCQQWSSNPFTFGSGTKLEINRGGGGSGGGGSGGGGSGGGGSEVQLQQSGAELARPGASVKMS[… about 80 residues …]WGQGTTLTVSSA
- median percentage of T cells expressing TCRαβ after PEBL transduction: 25%
